{"source": "PubChem BioAssay AID686979", "about": "(National Center for Advancing Translational Sciences (NCATS), 2013)", "note": "About 50,000 (12%) of roughly 420,000 compounds were called active. The shares of active, inactive and inconclusive entries below differ from those in the screen. Calls follow the shape of the dose curve; as a rule, active = well fitted inhibition curve with a large enough effect; inconclusive = small, poorly fitted or top-dose-only effect; inactive = flat fitted curve, though single readings scatter. Potencies of inconclusive entries are left out as doubtful fits. Potency is read from the fitted curve at half-maximal effect; tags tell the direction and shape of the fitted curve."}
{"test": "qHTS for Inhibitors of human tyrosyl-DNA phosphodiesterase 1 (TDP1): qHTS in cells in presence of CPT; also: nearly all actives have a fitted effect of over 55% in size", "conditions": "chicken DT40 Tdp1-/-;hTDP1 cells + 20 nM CPT, ATP luminescence, 48 h; series mostly up to 46.2 µM", "outline": "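Chicken DT40 Tdp1-/- cells stably complemented with human TDP1 were seeded at 400 cells/well in medium containing 20 nM camptothecin, exposed to pin-transferred compounds, and grown at 37 °C for at least 48 hr. Viability was read as ATP luminescence.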"}
{"smiles": "CC1(C(=O)NS(=O)(=O)c2ccc(Cl)cc2)CCN1C(=O)Cc1cc(F)ccc1F", "note": "(stereo not given)", "Potency": "inactive"}
{"smiles": "COc1ccccc1CCNC(=O)Cn1ccc2cc(S(=O)(=O)N3CCCC3)ccc21", "Potency": "inconclusive [inhibitor, single point]"}
{"smiles": "N#Cc1ccc(N2CCOCC2)nc1", "Potency": "inactive"}
{"smiles": "CCCCCn1nc(C)c(/C=N/NC(=O)c2ccoc2C)c1C", "Potency": "inconclusive [inhibitor, single point]"}
{"smiles": "Cc1nn(C)c(C)c1S(=O)(=O)N(CC(=O)NCCCN1CCC(C)CC1)c1ccc(C(C)C)cc1", "Potency": "inactive"}
{"smiles": "COc1cc(C(=O)Nc2cccc(-c3nc4cc(C)ccc4o3)c2)cc(OC)c1OC", "Potency": "active: 23.1 µM"}
{"smiles": "Cc1nc2sc(-c3ccccc3)cc2c(=O)[nH]1", "Potency": "inconclusive [inhibitor, partial curve]"}
{"smiles": "CC(C)C[C@H]1CN=C(Nc2ccccc2)N1CCC(C)c1ccccc1", "note": "(stereo not given in full)", "Potency": "inconclusive [inhibitor, single point]"}
{"smiles": "Cc1cc(/C=C2\\C(=N)N3C(SCc4ccccc4)=NSC3=NC2=O)c(C)n1Cc1ccccc1", "Potency": "inconclusive [inhibitor, single point]"}
{"smiles": "O=C(NCc1ccco1)c1ccc2c(c1)N(Cc1ccc(Cl)cc1)C(=O)c1ccccc1S2(=O)=O", "Potency": "inconclusive [inhibitor, single point]"}
{"smiles": "COC(=O)c1ccccc1-c1cc(C)cc2c1OC(CNC(=O)C1CCCO1)C2", "note": "(stereo not given)", "Potency": "inconclusive [inhibitor, single point]"}
{"smiles": "CCOc1ccc(NC(=NCc2ccc3c(c2)OCO3)SC2CC(=O)N(c3ccc(OCC)cc3)C2=O)cc1", "note": "(stereo not given)", "Potency": "inconclusive [inhibitor, partial curve]"}
{"smiles": "CCN(CC(=O)Nc1cc(Cl)ccc1C)C(=O)CSCc1c(C)noc1C", "Potency": "inactive"}
{"smiles": "COc1ccccc1CN(CC(=O)NCc1ccc2c(c1)OCO2)C(=O)c1ccc2c(c1)OCCO2", "Potency": "inconclusive [inhibitor, single point]"}
{"smiles": "CCN1CCN(c2cc(C)c3cc(NC(=S)NCCCOC)ccc3n2)CC1", "Potency": "inconclusive [inhibitor, single point]"}
{"smiles": "O=C(NCCC1=CCCCC1)C1CCN(C(=O)N2CCOc3ccc(Cl)cc32)CC1", "Potency": "inconclusive [inhibitor, single point]"}
{"smiles": "COC(=O)C1CCN(C(=O)C2CCC(=O)N(CCc3cccc(F)c3)C2)CC1", "note": "(stereo not given)", "Potency": "inactive"}
{"smiles": "Cc1csc(NC(=O)[C@@H](NC(=O)c2ccccc2)C(C)C)n1", "Potency": "inconclusive [inhibitor, single point]"}
{"smiles": "Cc1cn2c(=O)c(S(=O)(=O)Nc3ccc(F)cc3F)c(C)nc2s1", "Potency": "inactive"}
{"smiles": "COc1cc2sc3cc(NCC[C@@H]4CCCN4C)ccc3c(=O)c2cc1OC", "Potency": "inconclusive [inhibitor, single point]"}
{"smiles": "CCOc1ccc(C(=O)NCCc2csc(-c3cccc(F)c3)n2)cc1OCC", "Potency": "inconclusive [inhibitor, partial curve]"}
{"smiles": "CCOC(=O)CC(NC(=O)CCc1c(C)nc2ncnn2c1C)c1ccc(C)cc1", "note": "(stereo not given)", "Potency": "inactive"}
{"smiles": "Cc1cc2c(cc1C)-n1nnnc1C(N1CCN(c3ncccc3C#N)CC1)C(=O)N2", "note": "(stereo not given)", "Potency": "inconclusive [inhibitor, single point]"}
{"smiles": "CN(Cc1ccccc1)c1ccc(-c2nc(-c3ccncc3)no2)cc1[N+](=O)[O-]", "Potency": "active: 20.6 µM"}
{"smiles": "Cc1cc(C)cc(C(=O)NCC(c2ccc(N(C)C)cc2)N2CCCC2)c1", "note": "(stereo not given)", "Potency": "active: 14.6 µM"}
{"smiles": "CC(CCc1ccccc1)NC(=O)c1ccc2nc(N3CCOCC3)sc2c1", "note": "(stereo not given)", "Potency": "inconclusive [inhibitor, single point]"}
{"smiles": "Clc1ccc(-c2csc(N/N=C/c3cccnc3)n2)c(Cl)c1", "Potency": "inconclusive [inhibitor, single point]"}
{"smiles": "CCn1ncc(Br)c1C(=O)Nc1ccc(C(=O)OC(C)C)cc1", "Potency": "inconclusive [inhibitor, single point]"}
{"smiles": "COc1ccc(-c2[nH]ncc2-c2ccc3c(c2)OCCO3)c(O)c1", "Potency": "active: 4.61 µM"}
{"smiles": "O=C1Nc2ccccc2N(C(=O)c2c(F)cccc2F)C1c1nc2ccccc2[nH]1", "note": "(stereo not given)", "Potency": "inconclusive [inhibitor, single point]"}
{"smiles": "O=C(c1ccc2c(=O)n(Cc3ccc4c(c3)OCO4)c(=S)[nH]c2c1)N1CCCCC1", "Potency": "inconclusive [inhibitor, partial curve]"}
{"smiles": "CCCCNC(=O)[C@@H]1CC=C[C@@H]2CCN(C3CC3)C(=O)[C@@H]21", "Potency": "inactive"}
{"smiles": "O=C(NCc1ccc(Cl)cc1)c1ccc(Cn2c(=O)c3cccn3c3cccnc32)cc1", "Potency": "inactive"}
{"smiles": "O=C(Cc1ccc(OCc2ccccn2)cc1)NO", "Potency": "inconclusive [inhibitor, single point]"}
{"smiles": "COc1cccc(C(=O)NC(C)c2ccc(-c3ccccc3)cc2)c1OC", "note": "(stereo not given)", "Potency": "inconclusive [inhibitor, single point]"}
{"smiles": "CCOC(=O)c1cc2c(=O)n3cccc(C)c3nc2n(Cc2ccco2)c1=NC(=O)c1ccc(C)cc1", "Potency": "inactive"}
{"smiles": "COc1ccc(NC(=O)N(C)C[C@@H]2OCc3cn(nn3)CCCC(=O)N([C@H](C)CO)C[C@H]2C)cc1", "Potency": "inactive"}
{"smiles": "O=C(c1ccc(=O)n(Cc2ccccc2)n1)N1CCN(C/C=C/c2ccccc2)CC1", "Potency": "active: 18.4 µM"}
{"smiles": "CC(C)(C)OC(=O)N1CCC(C(=O)N[C@H](C(=O)O)c2ccccc2)(c2ccccc2)CC1", "Potency": "inactive"}
{"smiles": "COC(=O)C1=C(C)N(Cc2ccccc2)C(=NCc2ccco2)N[C@H]1c1cccc(F)c1", "Potency": "active: 11.6 µM"}
{"smiles": "CSCCC(c1nnnn1Cc1ccccc1)N1CCN(C/C=C/c2ccccc2)CC1", "note": "(stereo not given)", "Potency": "inconclusive [inhibitor, single point]"}
{"smiles": "CCCCOc1ncnc2c1[nH]c1ccccc12", "Potency": "active: 10.3 µM"}
{"smiles": "O=C(CCS(=O)(=O)c1ccccc1)Nc1nc2cc3c(cc2s1)OCCO3", "Potency": "inconclusive [inhibitor, single point]"}
{"smiles": "N#C/C(=C\\c1cc(Cl)cc(Cl)c1O)C(=O)NC1CCCCC1", "Potency": "active: 20.6 µM"}
{"smiles": "CCCCNC(=O)c1nc(-c2cccs2)oc1-c1ccc(Cl)cc1", "Potency": "inconclusive [inhibitor, single point]"}
